Drawing on the supplement of paper PMC9446081, this text covers relative growth for 60 compounds.

The structures appear in SMILES notation. Out of some 39,000 compounds screened, about 220 (0.56%) showed activity. The list shows a part of the results.
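Note: static incubation at 37 °C against the wild-type strain, values averaged over two biological replicates.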

In this assay the test system is Escherichia coli K-12 BW25113. Description: relative growth (OD600 normalised to plate interquartile mean) (fraction); higher = less growth inhibition, active = 0.2 or less. Particulars: 50 µM; LB; incubation time: overnight (16-24 h).
For the compound `COc1ccc(S(=O)(=O)N(C)C[C@@H]2Oc3c(NS(=O)(=O)c4cn(C)cn4)cccc3C(=O)N([C@H](C)CO)C[C@H]2C)cc1`, the relative growth is inactive: 0.982.
On to `COc1ccc(S(=O)(=O)N(C)C[C@@H]2OCCCC[C@H](C)Oc3ccc(NC(=O)Nc4ccc5c(c4)OCO5)cc3C(=O)N([C@H](C)CO)C[C@H]2C)cc1`, for which the relative growth is inactive: 1.
With `C[C@@H]1CCCCO[C@H](CN(C)C)[C@@H](C)CN([C@H](C)CO)C(=O)c2cc(NS(=O)(=O)c3cn(C)cn3)ccc2O1`, the relative growth was inactive: 0.968.
To `C[C@@H]1CN([C@H](C)CO)C(=O)c2cc(NC(=O)Nc3ccc(C(F)(F)F)cc3)ccc2O[C@@H](C)CCCCO[C@@H]1CN(C)C(=O)CCCN(C)C` belongs inactive: 0.938; to `COc1ccc(S(=O)(=O)Nc2ccc3c(c2)C(=O)N([C@@H](C)CO)C[C@H](C)[C@@H](CN(C)S(=O)(=O)c2ccc(C)cc2)O3)cc1`, inactive: 1.
To `CS(=O)(=O)Nc1ccc2c(c1)[C@H]1C[C@@H](CC(=O)NCc3ccc(-c4ccccc4)cc3)O[C@H](CO)[C@H]1O2` belongs inactive: 1.02.
For the compound `C[C@H]1CCCCO[C@H](CN(C)C(=O)Nc2ccc(F)cc2)[C@@H](C)CN([C@@H](C)CO)C(=O)c2cc(NC(=O)Nc3cccc4ccccc34)ccc2O1`, the relative growth was inactive: 1.
For the compound `C[C@@H]1CN([C@H](C)CO)C(=O)c2cccc(NS(=O)(=O)c3cn(C)cn3)c2O[C@@H]1CN(C)C(=O)Nc1ccc(F)cc1`, the relative growth is inactive: 0.98.
Under `O=C(CCCCCCC(=O)N/N=C/[C@@H](O)[C@@H](O)[C@H](O)[C@H](O)CO)NO` stands inactive: 1.
Under `Cc1cc(C(=O)Nc2cccc3c2O[C@H](CN(C)S(=O)(=O)c2cn(C)cn2)[C@H](C)CN([C@H](C)CO)C3=O)n(C)n1` stands inactive: 1.01.
Under `C[C@H]1CN([C@@H](C)CO)C(=O)Cc2cc(NS(=O)(=O)c3ccc(F)cc3)ccc2O[C@H]1CN(C)Cc1ccc(Cl)c(Cl)c1` stands inactive: 0.995; under `C[C@@H]1CN([C@H](C)CO)C(=O)c2cc(NC(=O)Nc3ccccc3)ccc2O[C@H]1CN(C)Cc1ccc(Oc2ccccc2)cc1`, inactive: 1.08.
Turning to `NC(=O)c1cccc(N)c1`, the relative growth is inactive: 0.807.
To `C[C@H](CO)N1C[C@H](C)[C@@H](CN(C)C(=O)Nc2ccc3c(c2)OCO3)OCc2cnnn2CCCC1=O` belongs inactive: 0.998; to `CN(C)Cc1cn(CC[C@H]2CC[C@H](NC(=O)Cc3cccnc3)[C@H](CO)O2)nn1`, inactive: 1.01.
For `COc1ccc(S(=O)(=O)N(C)C[C@@H]2Oc3c(NS(=O)(=O)c4ccccc4)cccc3C(=O)N([C@@H](C)CO)C[C@@H]2C)cc1`, the relative growth is inactive: 0.99.
To `C[C@H]1CCCCO[C@H](CN(C)C(=O)Nc2cccc3ccccc23)[C@@H](C)CN([C@@H](C)CO)C(=O)c2cc(NC(=O)c3ccncc3)ccc2O1` belongs inactive: 0.957; to `COC[C@@H]1CNN1C(=O)c1cc(C)oc1C`, inactive: 0.8; to `Cc1ccc(S(=O)(=O)Nc2ccc3c(c2)C(=O)N([C@H](C)CO)C[C@@H](C)[C@@H](CN(C)C(=O)NC2CCCCC2)OCCCC[C@H](C)O3)cc1`, inactive: 1.03.
As for `CN(C)CCCNC(=O)C[C@H]1CC[C@@H]2[C@@H](COc3ccc(NC(=O)NC4CCCC4)cc3C(=O)N2C)O1`, the relative growth was inactive: 0.983.
To `CCn1nc(C)c([C@@H](C)N)c1C` belongs inactive: 0.992; to `C[C@@H]1CN([C@H](C)CO)S(=O)(=O)c2ccc(C3=CCCCC3)cc2O[C@H]1CN(C)Cc1cncnc1`, inactive: 1.01; to `NNC(=S)Nc1cccc(F)c1`, inactive: 0.981.
Under `C=CC1=C(C(=O)O)N2C(=O)[C@@H](NC(=O)/C(=N/O)c3csc(N)n3)[C@H]2SC1` stands active: 0.0336.
Under `C[C@H](CO)N1C[C@H](C)[C@H](CN(C)C(=O)Cc2ccccn2)Oc2ncc(C#CC3CCCCC3)cc2C1=O` stands inactive: 0.863; under `C[C@H](CO)N1C[C@H](C)[C@H](CN(C)S(=O)(=O)c2ccc3ccccc3c2)OCc2cnnn2CCCC1=O`, inactive: 1.04.
Take `C[C@@H]1CN([C@@H](C)CO)C(=O)c2cccc(NC(=O)Nc3ccc(C(F)(F)F)cc3)c2O[C@H]1CN(C)C(=O)Nc1cccc2ccccc12`: the relative growth was inactive: 0.8.
Under `C[C@@H]1CCCCO[C@@H](CN(C)S(=O)(=O)c2cccs2)[C@@H](C)CN([C@H](C)CO)C(=O)c2cc(NC(=O)Nc3ccc(C(F)(F)F)cc3)ccc2O1` stands inactive: 0.986; under `C[C@H]1CN([C@@H](C)CO)C(=O)c2cccc(NS(C)(=O)=O)c2O[C@H]1CN(C)S(=O)(=O)c1ccccc1`, inactive: 1.04.
To `O=C1CC[C@H](C(=O)N2CCCCC2)N1` belongs inactive: 0.986; to `COc1ccc(NC(=O)Nc2ccc3c(c2)C(=O)N([C@@H](C)CO)C[C@H](C)[C@H](CN(C)C(=O)NC2CCCCC2)OCCCC[C@@H](C)O3)cc1`, inactive: 1.01; to `Cc1ccc(S(=O)(=O)Nc2ccc3c(c2)CC(=O)N([C@@H](C)CO)C[C@H](C)[C@@H](CN(C)S(C)(=O)=O)O3)cc1`, inactive: 1.
With `C[C@H](CO)N1C[C@H](C)[C@@H](CN(C)Cc2ccc(C(=O)O)cc2)OCCCC[C@H](C)Oc2ccc(NC(=O)NC3CCCCC3)cc2C1=O`, the relative growth was inactive: 1.
For the compound `CNC[C@@H]1OCCCC[C@@H](C)Oc2ccc(NC(=O)c3ccncc3)cc2C(=O)N([C@@H](C)CO)C[C@H]1C`, the relative growth is inactive: 0.977.
To `C[C@H]1CN([C@@H](C)CO)C(=O)c2cccc(NC(=O)Nc3ccc(C(F)(F)F)cc3)c2O[C@H]1CN(C)C(=O)Nc1ccccc1` belongs inactive: 0.9; to `COc1ccc(NC(=O)N(C)C[C@@H]2Oc3ccc(NC(=O)CCCN(C)C)cc3CC(=O)N([C@H](C)CO)C[C@H]2C)cc1`, inactive: 0.984; to `C[C@@H]1CN([C@H](C)CO)C(=O)Cc2cc(NC(=O)Nc3ccc(F)cc3)ccc2O[C@@H]1CN(C)Cc1ccc(Oc2ccccc2)cc1`, inactive: 1.03.
As to `C#CC1(O)CCC2C3CCc4cc(O)ccc4C3CCC21C` (stereo not given), the relative growth is inactive: 0.817.
`C[C@@H]1CCCCO[C@@H](CN(C)S(C)(=O)=O)[C@H](C)CN([C@@H](C)CO)C(=O)c2cc(NC(=O)Nc3ccc(C(F)(F)F)cc3)ccc2O1`: the relative growth was inactive: 1.02.
To `c1cc(-c2nn[nH]n2)ccc1OCc1nn[nH]n1` belongs inactive: 1.04.
In the case of `CN([C@@H](Cc1ccc(OS(=O)(=O)c2cccc3cnccc23)cc1)C(=O)N1CCN(c2ccccc2)CC1)S(=O)(=O)c1cccc2cnccc12`, the relative growth is inactive: 0.904.
Under `COc1ccc(NC(=O)N(C)C[C@H]2Oc3ccc(NC(=O)C4CC4)cc3CC(=O)N([C@H](C)CO)C[C@H]2C)cc1` stands inactive: 0.968; under `C[C@H](CO)N1C[C@H](C)[C@H](CN(C)S(C)(=O)=O)Oc2c(NS(=O)(=O)c3ccc(Cl)cc3)cccc2C1=O`, inactive: 1.02; under `COc1ccc(S(=O)(=O)N(C)C[C@@H]2Oc3ccc(NS(=O)(=O)c4ccc(F)cc4)cc3C(=O)N([C@H](C)CO)C[C@H]2C)cc1`, inactive: 0.999.
Under `CC(C)(C)c1c(C(C)(C)C)c1=O` stands inactive: 0.987; under `CN1CCN(C(=O)C[C@@H]2CC[C@H]3[C@@H](COc4ccc(NC(=O)c5cscn5)cc4C(=O)N3C)O2)CC1`, inactive: 1.01.
To `CCCC(=O)Nc1ccc2c(c1)C(=O)N(C)C[C@@H](OC)[C@H](C)CN(Cc1ccc(-c3ccccn3)cc1)[C@@H](C)CO2` belongs inactive: 1.05; to `C[C@@H]1CCCCO[C@@H](CN(C)S(C)(=O)=O)[C@@H](C)CN([C@@H](C)CO)C(=O)c2cc(NS(=O)(=O)c3ccc(F)cc3)ccc2O1`, inactive: 1.04; to `COc1ccc(S(=O)(=O)Nc2ccc3c(c2)C(=O)N([C@H](C)CO)C[C@@H](C)[C@@H](CN(C)CC2CCCCC2)OCCCC[C@@H](C)O3)cc1`, inactive: 1.01.
As for `Cn1c(=O)c2[nH]c(Br)nc2n(C)c1=O`, the relative growth was inactive: 1.02.
To `C[C@@H]1CCCCO[C@H](CN(C)C(=O)Cc2ccccc2)[C@@H](C)CN([C@@H](C)CO)C(=O)c2cc(NC(=O)CCC(F)(F)F)ccc2O1` belongs inactive: 0.983; to `CO[C@H]1CN(C)C(=O)c2cc(NS(=O)(=O)c3cn(C)cn3)ccc2OC[C@@H](C)N(CC2CC2)C[C@H]1C`, inactive: 1.03; to `CN(C)C(=O)c1ccc(-c2cccc(-c3nc(C(=O)NCc4ccccc4)cc4c3[C@H](CCO)N([S@@](=O)C(C)(C)C)C4)c2)cc1`, inactive: 0.969.
Under `C[C@@H]1CCCCO[C@H](CN(C)S(C)(=O)=O)[C@H](C)CN([C@@H](C)CO)C(=O)c2cc(NS(=O)(=O)c3cn(C)cn3)ccc2O1` stands inactive: 0.989; under `Cc1ccc(S[C@]2(C(=O)NC(C)C)CC(=O)N(Cc3ccccc3Cl)[C@@H]2c2ccc(CO)cc2I)cc1`, inactive: 0.982.
To `C=CC[C@H](CC(=O)N(CCO)Cc1ccccc1)C(=O)N[C@H](COC(=O)[C@H](CC=C)NC(=O)OCC1c2ccccc2-c2ccccc21)C(C)(C)C` belongs inactive: 1.01; to `C[C@@H]1CN([C@@H](C)CO)C(=O)Cc2cc(NC(=O)CCN3CCOCC3)ccc2O[C@H]1CN(C)S(=O)(=O)c1ccccc1`, inactive: 0.982; to `CC(C)CN(C[C@@H](O)[C@H](Cc1ccccc1)NC(=O)O[C@H]1CO[C@H]2OCC[C@H]21)S(=O)(=O)c1ccc(N)cc1`, inactive: 1.02.
For `C[C@H](CO)N1C[C@H](C)[C@H](CN(C)S(=O)(=O)c2cccc(F)c2)Oc2ncc(C#Cc3cccc(F)c3)cc2C1=O`, the relative growth is inactive: 1.03.
Under `COc1ccc(CN(C)C[C@@H]2OCCCC[C@@H](C)Oc3ccc(NS(=O)(=O)c4ccc(OC)cc4)cc3C(=O)N([C@@H](C)CO)C[C@H]2C)cc1` stands inactive: 1.01.
